In article PMC11697113, “The Hsc70 system maintains the synaptic SNARE protein SNAP-25 in an assembly-competent state and delays its aggregation [image fx2.gif]” (The Journal of Biological Chemistry, 2024):

Biological target: T1, heat shock cognate 70 (Hsc70), human constitutively expressed Hsp70, wild type (human, UniProt P11142)
T1 construct: Hsc70, the human constitutively expressed Hsp70; also called WT Hsc70; His-Hsc70 (before cleavage); source: E. coli Rosetta (DE3), purified (Ni-NTA, TEV cleavage, second Ni-NTA)
Test: fluorescence polarisation; competition followed by fluorescence anisotropy: competitor titrated 0 to 200 μM into a complex of Hsc70 (5 μM) and FITC-p5 (50 nM); 20 mM phosphate buffer pH 7.4, 100 μM MgCl2, 100 mM KCl; overnight at 4 °C
Settings: both partners purified

T1 sequence (P11142 whole entry): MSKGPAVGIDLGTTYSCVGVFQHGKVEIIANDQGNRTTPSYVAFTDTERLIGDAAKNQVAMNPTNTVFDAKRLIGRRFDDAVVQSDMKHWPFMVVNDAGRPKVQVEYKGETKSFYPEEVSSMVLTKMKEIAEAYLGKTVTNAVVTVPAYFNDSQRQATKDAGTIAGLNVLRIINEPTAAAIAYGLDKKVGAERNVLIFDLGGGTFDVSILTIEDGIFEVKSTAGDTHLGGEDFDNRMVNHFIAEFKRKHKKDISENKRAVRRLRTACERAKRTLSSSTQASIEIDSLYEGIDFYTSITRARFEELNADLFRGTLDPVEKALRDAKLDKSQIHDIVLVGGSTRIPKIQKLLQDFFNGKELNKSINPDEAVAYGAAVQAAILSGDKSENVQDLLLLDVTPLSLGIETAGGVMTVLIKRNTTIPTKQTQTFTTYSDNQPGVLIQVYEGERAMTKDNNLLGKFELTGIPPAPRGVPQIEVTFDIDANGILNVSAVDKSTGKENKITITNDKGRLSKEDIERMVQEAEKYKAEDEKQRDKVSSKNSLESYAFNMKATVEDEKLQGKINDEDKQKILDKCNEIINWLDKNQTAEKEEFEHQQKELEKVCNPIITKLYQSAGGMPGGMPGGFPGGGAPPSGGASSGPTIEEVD

- binding result: binds
B1: SNAP-25 SNC fragment (SNCFR […]) (domain or fragment)
chain: not shown
notes: SNAP-25, C-terminal SNARE motif fragment, […]; plasmid from J. Rizo; source: E. coli BL21 (DE3), purified (Ni-NTA, TEV cleavage, second Ni-NTA)
